# Data: PubChem BioAssay AID445 (National Center for Advancing Translational Sciences (NCATS), 2006)
# Screen size: about 110,000 compounds; about 40 (0.04%) were called active. Inconclusive means that the source gave no clear call. Such entries were picked first, then a sample of the others. Calls follow the shape of the dose curve; as a rule, active = well fitted curve in the direction sought with a large enough effect in the signal ratio (not every such curve was filed as active); inconclusive = small, poorly fitted or top-dose-only effect, or a change in a side signal; inactive = flat fitted curve, though single readings scatter; the % refers to the signal ratio. A potency beside an inconclusive call is a rough fit, not a confirmed value.
# Test: IkB Signaling;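 as to IkBa stabilization activation: 0% = basal untreated cells and 100% = reference inhibitor full response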
# Settings: ABC-DLBCL IkBa-CBG/CBR dual luciferase ratio (green luciferase fused to IkBa over red control in OCI-Ly3 lymphoma cells), 4 h, scaled: untreated 0%
# Outline: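 Curves were fitted separately to fusion (green), unfused (red) and ratio luminescence, then classed by r2, magnitude and activity. Cells: OCI-Ly3, 4 h compound plus doxycycline at 37C; 10 uM MG-132 defined full response.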
# [1] = IkBa stabilization activation: at 57.1 µM (top of the series), proteasome inhibitor 100% unless noted
# Potency is read from the fitted curve at half-maximal effect.
smiles,measurement,setting,value
CCCOC(=O)c1c(NC(=O)C(C)Sc2nc(-c3ccccc3)cc(C(F)(F)F)n2)sc(C(=O)N(C)C)c1C (stereo not given),IkBa stabilization activation,[1],inconclusive: 5.41% [signal inhibitor]
Cc1ccc(S(=O)(=O)Nn2c(C)ccc2C)cc1,IkBa stabilization activation,[1],inactive
COc1ccc(-c2nnc(SCC(=O)N(Cc3ccccc3)C(C)(C)C)o2)cc1OC,IkBa stabilization activation,[1],inactive
O=C(N/N=C\c1ccc([N+](=O)[O-])o1)c1ccc(O)cc1,Potency,[1],"inconclusive: 5.01 µM [signal inhibitor, partial curve]"
Cc1c(C)n(C(=O)CN2CCN(c3ccccn3)CC2)c2ccccc12,Potency,[1],"inconclusive: 39.8 µM [signal inhibitor, single point]"
Cc1ccc(Cl)cc1NC(=O)Nc1nnc(N(C)Cc2ccccc2)s1,IkBa stabilization activation,[1],inconclusive: 7.75% [signal inhibitor]
CCC1CN(C(=O)N2CCC(C(=O)NCCc3ccccc3Cl)CC2)c2cc(C)ccc2O1 (stereo not given),IkBa stabilization activation,[1],inconclusive: -0.813% [signal inhibitor]
CCCCC(=O)NCCc1c(Cc2ccccc2)[nH]c2ccccc12,IkBa stabilization activation,[1],inconclusive: 0.981% [signal inhibitor]
COc1cc(NC(=O)CN2c3ccccc3S(=O)(=O)c3ccccc32)cc(OC)c1,IkBa stabilization activation,[1],inconclusive: 2.81% [signal inhibitor]
COc1ccc2nc(NCc3ccccc3)[nH]c2c1,IkBa stabilization activation,[1],inactive
COCCNC(=O)CSc1nc(-c2cc(OC)c(OC)c(OC)c2)[nH]c1-c1ccc(Cl)cc1,Potency,[1],"inconclusive: 20 µM [signal inhibitor, partial curve]"
COc1cc(NCC[C@@H]2CCCCN2)c2ncccc2c1,IkBa stabilization activation,[1],"inconclusive: 9.71% [signal inhibitor] [at 11.4 µM, scaled: untreated 0%, proteasome inhibitor 100%]"
Cc1ccc(C(=O)CSc2nc(-c3ccccc3)nc3c2CCCC3)c(C)c1,IkBa stabilization activation,[1],inconclusive: 2.55% [signal inhibitor]
C#CCOC(=O)c1ccccc1C(=O)n1nnc2ccccc21,IkBa stabilization activation,[1],inconclusive: 17% [signal inhibitor]
Cc1cc(SCNC(=O)c2ccccc2)ncn1,IkBa stabilization activation,[1],inactive
Cn1cc(/C=N/n2cnc3scc(-c4ccc(Cl)cc4)c3c2=O)c2ccccc21,IkBa stabilization activation,[1],inconclusive: 2.97% [signal activator]
CC(=O)Nc1c(I)c(C(=O)N[C@H]2[C@@H](O)[C@H](O)[C@H](CO)O[C@@H]2O)c(I)c(N(C)C(C)=O)c1I,IkBa stabilization activation,[1],inactive
COc1cccc(-c2ccc3ncnc(NCc4ccccc4)c3c2)c1,IkBa stabilization activation,[1],"inconclusive: 8.35% [signal inhibitor] [at 11.4 µM, scaled: untreated 0%, proteasome inhibitor 100%]"
CCOc1ccccc1NC(=O)c1ccc2c(Cl)c3c(nc2c1)CCC3,Potency,[1],"inconclusive: 3.98 µM [signal inhibitor, full curve]"
CC(C)(C)c1ccc(C(=O)Nc2ccc3c(c2)CCCN3C(=O)c2cccs2)cc1,IkBa stabilization activation,[1],inconclusive: 3.21% [signal inhibitor]
COC(=O)c1ccc2c(=O)n(CCCCCC(=O)N3CCN(c4ccc(F)cc4)CC3)c(=O)[nH]c2c1,IkBa stabilization activation,[1],inactive
CC1=CC(=C2C(=O)c3ccccc3C2=O)C=C(C)N1C,IkBa stabilization activation,[1],inactive
CCn1c(SCC(N)=O)nnc1-c1cc2c(C)nn(-c3ccccc3)c2s1,IkBa stabilization activation,[1],inconclusive: 3.73% [signal inhibitor]
Cc1ccc(NC(=O)c2nc(S(C)(=O)=O)ncc2N(Cc2ccco2)Cc2cccs2)c(C)c1,IkBa stabilization activation,[1],inconclusive: 2.95% [signal inhibitor]
Cc1ccc(OCC(=O)Nc2nnc(S(=O)(=O)N3c4ccccc4CC3C)s2)cc1 (stereo not given),IkBa stabilization activation,[1],inactive
Cc1ccc(NC(=O)CSc2nc(=O)n(CCN3CCOCC3)c3c2CCC3)c(C)c1,IkBa stabilization activation,[1],inactive
CC(=O)N1CCc2nc3sc(C(=O)c4ccc(F)cc4)c(N)c3c(C(F)(F)F)c2C1,IkBa stabilization activation,[1],inconclusive: 1.15% [signal inhibitor]
Cc1oc2nc(SCC(=O)NC3CCCCC3)nc(N)c2c1C,IkBa stabilization activation,[1],inactive
Cc1ccc(Nc2nc(N)nc(CN3CCN(Cc4ccc5c(c4)OCO5)CC3)n2)cc1Cl,IkBa stabilization activation,[1],inconclusive: 2.45% [signal inhibitor]
CCn1c(=O)c2c(nc3n2CC(C)CN3CCc2ccccc2)n(C)c1=O (stereo not given),IkBa stabilization activation,[1],inactive
CC(=O)NCCNc1nc(-c2ccc(C(=O)N(C)C)cc2)nc2ccccc12,IkBa stabilization activation,[1],"inactive: 1.3% [at 11.4 µM, scaled: untreated 0%, proteasome inhibitor 100%]"
CC(=O)c1cccc(NC(=O)c2nc(-c3ccccc3)n(-c3cccc(Cl)c3)n2)c1,IkBa stabilization activation,[1],inactive
CCc1ccc(NC(=O)C(=O)NCC(c2cccnc2)N2CCN(c3ccc(F)cc3)CC2)cc1 (stereo not given),IkBa stabilization activation,[1],inconclusive: 0.058% [signal inhibitor]
Cc1cc2cc(CN(Cc3ccco3)C(=O)NCc3ccccc3)c(=O)[nH]c2cc1C,IkBa stabilization activation,[1],inconclusive: 7.9% [signal inhibitor]
Cc1nnc(N2CCC(C(=O)N3CCCCC3)CC2)c2nn(-c3ccc(Cl)cc3)c(C)c12,IkBa stabilization activation,[1],inconclusive: 0.277% [signal inhibitor]
Cc1ccc(OCCCCn2nnc3sc4c(c3c2=O)CCCC4)cc1,IkBa stabilization activation,[1],inconclusive: -0.966% [signal inhibitor]
COc1cc(OC)cc(C(=O)Nc2ncc3c(n2)CC(C)(C)CC3=O)c1,IkBa stabilization activation,[1],inconclusive: 12.6% [signal inhibitor]
CCC(c1nnnn1C(C)(C)CC)N(CCCO)Cc1cc2cc(C)cc(C)c2[nH]c1=O (stereo not given),Potency,[1],"inconclusive: 39.8 µM [rising, single point]"
O=C(O)CCSc1nnc(-c2ccc3c(c2)OCO3)o1,Potency,[1],"inconclusive: 0.631 µM [signal inhibitor, full curve]"
CC1CCCN(CCCNC(=O)c2coc3nc4ccccc4nc23)C1 (stereo not given),IkBa stabilization activation,[1],inconclusive: 15.6% [signal inhibitor]
O=C1CC(c2ccco2)Cc2nc(N3CCN(Cc4ccc5c(c4)OCO5)CC3)ncc21 (stereo not given),IkBa stabilization activation,[1],inconclusive: 0.473% [signal inhibitor]
CC(C)Cn1c2c(c(O)c(C(=O)Nc3ncccc3O)c1=O)CCCC2,IkBa stabilization activation,[1],inconclusive: 4.61% [signal inhibitor]
O=C(CSc1nccn1C1CCCC1)Nc1ccc(C(F)(F)F)cc1,IkBa stabilization activation,[1],inconclusive: -0.868% [signal inhibitor]
O=C(c1ccccc1)c1ccc(C(=O)N2CCN(c3ccc(F)cc3)CC2)o1,IkBa stabilization activation,[1],inconclusive: -4.44% [signal inhibitor]
CC(C)c1ccc(-c2nc(C(N)=O)c3c(n2)n(-c2ccc4c(c2)OCO4)c(=O)n3C)cc1,IkBa stabilization activation,[1],inconclusive: -0.626% [signal inhibitor]
CCOc1ccc(NC(=O)Cn2c(=O)n(-c3ccccc3)c(=O)c3ccc(C(=O)NCc4ccc5c(c4)OCO5)cc32)cc1,IkBa stabilization activation,[1],inactive
Cc1ccccc1S(=O)(=O)Cc1ccc(C(=O)NC2CCC(C)CC2)o1 (stereo not given),IkBa stabilization activation,[1],inconclusive: 0.674% [signal inhibitor]
Cc1ccc(CNC(=O)C2CCN(S(=O)(=O)c3ccc4[nH]c(=O)ccc4c3)CC2)cc1,IkBa stabilization activation,[1],inconclusive: 2.61% [signal inhibitor]
O=C(Nc1cccc(OC(=O)c2ccco2)c1)c1ccco1,IkBa stabilization activation,[1],inactive
COc1cc2c(cc1O)CC[C@@H]1[C@@H]2CC[C@@]2(C)[C@H](O)CC[C@H]12,Potency,[1],"inconclusive: 2.51 µM [signal activator, full curve]"
Cc1nn(-c2ccccc2)c2c1N(CC(=O)N1CCN(c3ccc(F)cc3)CC1)C(=O)CS2,IkBa stabilization activation,[1],inconclusive: -0.917% [signal inhibitor]
CC1(C)C(=O)N(CC(=O)Nc2cccc(F)c2)c2ccc(S(=O)(=O)N3CCCCC3)cc21,IkBa stabilization activation,[1],inconclusive: -1.1% [signal inhibitor]
COc1cccc2cc(C(=O)Nc3ccc(F)c(F)c3)c(=O)oc12,Potency,[1],"inconclusive: 5.01 µM [signal inhibitor, partial curve]"
CC(=O)c1c(C)nn(CC(O)COc2ccc3c(c2)CCC3)c1C (stereo not given),IkBa stabilization activation,[1],inconclusive: 0.152% [signal inhibitor]
COC(=O)c1cc2c([nH]c3ccccc32)c(C)n1,IkBa stabilization activation,[1],inactive
CC(C)c1ccc(N2C(=O)CS(=O)(=O)C23C(=O)N(Cc2cccc(F)c2)c2ccccc23)cc1 (stereo not given),IkBa stabilization activation,[1],inconclusive: 1.02% [signal inhibitor]
Cc1cc2c(C(C)C)c(O)c(O)c(C=O)c2c(O)c1-c1c(C)cc2c(C(C)C)c(O)c(O)c(C=O)c2c1O,IkBa stabilization activation,"at 25.6 µM (top of the series), proteasome inhibitor 100%",inconclusive: 9.44% [signal inhibitor]
same,IkBa stabilization activation,"at 57.1 µM (top of the series), proteasome inhibitor 100%",inconclusive: 1.53% [signal inhibitor]
Cc1ccc(C)c(NC(=O)c2cc(S(=O)(=O)N3CCCc4ccccc43)ccc2F)c1,IkBa stabilization activation,[1],inconclusive: -1.86% [signal inhibitor]
CCOC(=O)c1ccc(NS(=O)(=O)c2ccc(-c3cc(C)no3)cc2)cc1,IkBa stabilization activation,[1],inconclusive: 1.37% [signal inhibitor]
Cc1cc(C)c(OCC(=O)N(Cc2ccco2)Cc2ccco2)c(C)c1,IkBa stabilization activation,[1],inconclusive: 2.25% [signal inhibitor]
COc1ccc(Cn2ccc3nc(C)c(C(=O)Nc4cc(C)cc(C)c4)cc3c2=O)cc1,IkBa stabilization activation,[1],inconclusive: 2.97% [signal inhibitor]
Cc1nc2ccccc2c(=O)n1-c1ccc(NC(=O)c2cccc([N+](=O)[O-])c2)cc1,IkBa stabilization activation,[1],inconclusive: -0.928% [signal inhibitor]
O=C(Nc1ccon1)c1cc(-c2ccccc2)nc2ccccc12,IkBa stabilization activation,[1],inconclusive: 2.79% [signal inhibitor]
COc1ccccc1CCNC(=O)c1ccc(-c2nc(CSc3ccc(C)cc3)c(C)o2)cc1,IkBa stabilization activation,[1],inconclusive: 1.81% [signal inhibitor]
